Data published in publication PMC4336329 (PLoS ONE, 2015).
Hit rate of the full screen: of about 310,000 compounds, about 14,000 (4.5%) showed an effect of 50% or more. The effect is printed as a negative number. The list shows a part of the results.

Target: human ether-à-go-go-related gene (hERG) potassium channel (human, UniProt Q12809)
Assay: primary screen, population patch clamp on CHO cells stably expressing hERG
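Further: peak tail current of the secondary pulse compared with the same well before compound.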

Sequence of human ether-à-go-go-related gene (hERG) potassium channel (Q12809 whole entry, looked up): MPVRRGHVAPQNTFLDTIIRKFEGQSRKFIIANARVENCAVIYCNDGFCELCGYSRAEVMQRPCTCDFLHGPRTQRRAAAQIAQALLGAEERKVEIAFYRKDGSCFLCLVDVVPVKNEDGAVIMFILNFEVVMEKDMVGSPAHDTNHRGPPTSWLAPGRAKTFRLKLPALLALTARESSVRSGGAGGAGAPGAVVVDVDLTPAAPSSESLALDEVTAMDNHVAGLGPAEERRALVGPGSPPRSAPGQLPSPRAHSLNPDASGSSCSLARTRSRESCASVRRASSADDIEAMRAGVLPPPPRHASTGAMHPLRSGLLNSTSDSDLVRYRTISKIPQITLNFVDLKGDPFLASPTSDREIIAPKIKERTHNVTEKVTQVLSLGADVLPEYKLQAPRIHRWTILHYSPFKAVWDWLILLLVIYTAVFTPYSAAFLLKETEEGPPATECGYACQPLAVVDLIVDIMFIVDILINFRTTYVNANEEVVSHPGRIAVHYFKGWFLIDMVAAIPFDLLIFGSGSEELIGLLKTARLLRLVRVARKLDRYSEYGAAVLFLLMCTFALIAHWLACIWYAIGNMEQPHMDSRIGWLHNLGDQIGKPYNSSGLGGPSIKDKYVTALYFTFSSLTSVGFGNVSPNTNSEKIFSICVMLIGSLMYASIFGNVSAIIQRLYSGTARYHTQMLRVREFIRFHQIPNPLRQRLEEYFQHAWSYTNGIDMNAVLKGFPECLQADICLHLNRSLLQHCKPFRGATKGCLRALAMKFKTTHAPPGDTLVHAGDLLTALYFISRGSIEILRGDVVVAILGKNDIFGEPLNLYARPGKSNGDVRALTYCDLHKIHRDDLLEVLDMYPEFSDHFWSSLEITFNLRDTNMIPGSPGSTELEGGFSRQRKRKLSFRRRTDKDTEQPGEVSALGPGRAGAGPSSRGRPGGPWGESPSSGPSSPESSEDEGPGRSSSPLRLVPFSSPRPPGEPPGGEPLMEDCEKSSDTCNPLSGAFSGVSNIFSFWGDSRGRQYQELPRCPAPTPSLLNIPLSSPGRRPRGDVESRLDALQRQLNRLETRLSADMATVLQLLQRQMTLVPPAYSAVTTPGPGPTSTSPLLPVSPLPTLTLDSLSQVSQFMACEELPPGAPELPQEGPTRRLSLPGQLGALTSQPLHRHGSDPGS

| Compound | hERG current change (%, negative = inhibition) at 10uM [%] |
| --- | --- |
| COc1ccc(NC(=O)CN2CCN(c3c(C)cccc3C)CC2)cc1 | -24.4 |
| COc1ccccc1/C=N/NC(=O)C(=O)N1CCN(c2ccccc2OC)CC1 | -9.23 |
| CCOC(=O)c1[nH]c2ccc(OC)cc2c1NC(=S)N1CCN(c2ccccc2)CC1 | -0.7 |
| COc1ccccc1OCCOC(=O)Nc1ccccc1 | 10.1 |
| COC(=O)c1sc(-c2ccc(C(C)(C)C)cc2)cc1NC(=O)/C=C/C(=O)O | 8.37 |
| COc1ccc(NC2=C(C(C)=O)C(c3ccccc3)C(C(C)=O)C(C)(O)C2)cc1 (centres unmarked) | -6.86 |
| O=C(NCc1ccccc1)/C(=C/c1ccc([N+](=O)[O-])cc1)NC(=O)c1ccco1 | -62.7 |
| O=C(CCn1c(=O)oc2ccccc21)NC1=NCCS1 | 10.7 |
| Cc1ccc(CNC(=O)C2CCCN(S(=O)(=O)N3CC(C)CC(C)C3)C2)cc1 (centres unmarked) | 0.631 |
| O=C(CC12CC3CC(CC(Br)(C3)C1)C2)Nc1nncs1 | 12.6 |
| O=C(c1cc(S(=O)(=O)NCc2ccco2)ccc1Br)N1CCOCC1 | -11.2 |
| COC(=O)CSc1nc2sc(C)c(C)c2c(=O)n1C | -12.8 |
| O=C1NCCN1C(=O)c1ccco1 | 9.96 |
| CN(C)S(=O)(=O)c1cccc(C(=O)N=C2N=C3C=CC(Cl)=CN3Cc3ccccc32)c1 | 14.2 |
| O=C(O)CSCC(=O)N1CCCN(c2nc3ccc(Cl)cc3s2)CC1 | 5.89 |
| O=C(CSc1ncn[nH]1)Nc1ccc(OCc2ccccc2)cc1 | 8.78 |
| Cc1ccccc1NC(=O)C1CCCN(S(=O)(=O)c2ccc3c(c2)C(C)(C)C(=O)N3C)C1 (centres unmarked) | 6.82 |
| CCOC(=O)c1c(NC(=O)C2CCCCC2)sc2c1CCN(CC)C2.Cl | -51.7 |
| O=C(COC(=O)[C@@H]1CCCN1C(=O)c1cccs1)Nc1ccc(F)cc1[N+](=O)[O-] | -37.9 |
| CC1(C)CC(=O)C2=C(C1)N(c1ccc(F)cc1)C(=O)CC2c1ccsc1 (centres unmarked) | -16 |
| O=C(Cn1nc(Cc2cccnc2)c2ccccc2c1=O)Nc1cc(F)ccc1F | -13.1 |

| Compound | hERG current change (%, negative = inhibition) at 10uM [%] |
| --- | --- |
| COc1ccc(-n2c(=O)[nH]c3cc(C(=O)NCCc4ccccc4)ccc3c2=O)cc1OC | 14.3 |
| CCCC1(C(=O)OCC)NC(c2cc(OC)c(OC)c(OC)c2)C2C(=O)N(CC)C(=O)C21 (centres unmarked) | 16.4 |
| O=[N+]([O-])c1cc(S(=O)(=O)N2CCCC2)ccc1NCCc1ccccc1 | 11.3 |
| CCOC(=O)c1c(S(=O)(=O)NCC(=O)Nc2ccc(C)cc2)c(C)n(C)c1C | -1.17 |
| CCOc1ccc(NS(=O)(=O)c2ccc(C(=O)N3CCCC3)cc2)cc1 | 8.35 |
| CCn1cc(C(=O)C(F)(F)F)c2ccccc21 | -6.36 |
| COCCOC(=O)C1=C(C)NC(=O)NC1c1ccc(OC(=O)c2ccco2)c(OC)c1 (centres unmarked) | 1.3 |
| CC(=O)Nc1ccc(S(=O)(=O)N2CCN(C(=O)c3ccco3)CC2)cc1 | 12 |
| CCSc1nc2c(c(=O)[nH]1)C(c1cccs1)C(C(=O)OC)=C(C)N2 (centres unmarked) | -0.799 |
| O=C(NCCOc1ccccc1)c1cccc2c1C(=O)c1ccc(Cl)cc1S2(=O)=O | -4.25 |
| CC1CCc2c(sc(NC(=O)COC(=O)c3ccc(NC(=O)CC#N)cc3)c2C#N)C1 (centres unmarked) | 10.4 |
| Cc1cccc(NC(=O)COc2cccc3c2CCN(Cc2ccccc2)C3=O)c1C | -5.8 |
| Cc1cccc(NC(=O)CNC(=O)COc2ccc(C(=O)c3ccc(F)cc3)cc2)c1C | -5.25 |
| c1cc(-c2nnc3n2CCC3)[nH]n1 | 12.5 |
| CC1(C)OC2OC(COC(=O)c3ccc([N+](=O)[O-])cc3)C3OC(C)(C)OC3C2O1 (centres unmarked) | -10.7 |
| COc1cc(/C=N/NC(=O)CN(Cc2ccco2)S(=O)(=O)c2ccccc2)ccc1O | -42.5 |
| COc1ccc(CCNC(=O)C(Sc2ccccn2)c2ccccc2)cc1OC (centres unmarked) | 3.25 |
| COC(=O)c1c(-c2cccc(C)c2)csc1N | 6.74 |
| CCn1cc(/C=C(\NC(=O)c2ccccc2Cl)C(=O)N2CCOCC2)c2ccccc21 | -2.35 |
| COc1ccc(C(=O)Nc2ccccc2N2CCN(C(=O)C(C)C)CC2)cc1Cl | -30.9 |
| CC(CN1CCNCC1)(NS(=O)(=O)c1ccccc1)c1ccccc1 (centres unmarked) | -44.7 |

| Compound | hERG current change (%, negative = inhibition) at 10uM [%] |
| --- | --- |
| O=C(Nc1ncccn1)c1ccc([N+](=O)[O-])o1 | 11.8 |
| N#Cc1nc(Cc2cccc3ccccc23)oc1NCCN1CCCCC1 | -60.3 |
| COc1cc(C2/C(=C(\O)c3ccc4c(c3)CC(C)O4)C(=O)C(=O)N2CCCn2ccnc2)ccc1O (centres unmarked) | 10.1 |
| Cc1cc(NC(=O)CSc2ncnc3ccccc23)no1 | 21.8 |
| c1ccc2c3c([nH]c2c1)C(C1CCCCC1)N(Cc1ncc[nH]1)CC3 (centres unmarked) | -39.5 |
| O=C(COC(=O)c1cc(-c2ccccn2)nc2ccccc12)Nc1ncc(C(F)(F)F)cc1Cl | 17.8 |
| CCCNC(=O)Cn1c(=O)cnc2ccccc21 | 26.3 |
| C=C(C)C(=O)NC1=NN(c2ccccc2)C(=O)C1 | 12.7 |
| COc1ccc2[nH]cc(CCNC(=O)c3ccc4ccccc4n3)c2c1 | 6.73 |
| Cc1cccc(OCC(O)CN2CCNCC2)c1.Cl (centres unmarked) | 26.5 |
| CCOC(=O)C(C)S(=O)(=O)c1ccc(C(F)(F)F)cn1 (centres unmarked) | 4.21 |
| C[C@@H](C(=O)N[C@H](C(=O)O)c1ccccc1)n1nnc2ccccc2c1=O | 13.7 |
| Cc1cc(C)nc(Sc2nc(Cl)nc(N(c3ccccc3)c3ccccc3)n2)n1 | 12.8 |
| O=[N+]([O-])c1ccc(/C=N/n2c(-c3cccnc3)n[nH]c2=S)cc1 | 17.2 |
| CN(CC(=O)Nc1cccc(F)c1)C(=O)CN1C(=O)NC2(CCCCC2)C1=O | 0.571 |
| Cc1ccc(C2CC(C(F)(F)F)n3nc(C(=O)NCc4c(C)nn(C)c4C)c(Cl)c3N2)cc1 (centres unmarked) | -40.1 |
| Cc1ccc(NC(=O)CC2SC3=NCCCN3C2=O)c(C)c1 (centres unmarked) | 9.89 |
| OCC1(Cc2ccc(F)cc2)CCCN(Cc2ccc(F)cc2Cl)C1 (centres unmarked) | -2.59 |
| C#CCOCCOCCOCCNc1nc(N2CCOCC2)nc(N2CCN(C(=O)CCCCCCCCCCNC(=O)[C@@H]([C@H](C)O)n3cc(C)nn3)CC2)n1 | 9.2 |
| CC(C)N(C(=O)CSc1nnc(-c2ccc3c(c2)OCO3)n1C)C(C)C | -2.31 |
| O=S(=O)(c1ccc(Cl)cc1)n1ccc(-c2cccc(OCc3c(F)cccc3Cl)c2)n1 | 6.56 |

| Compound | hERG current change (%, negative = inhibition) at 10uM [%] |
| --- | --- |
| O=C(O)CCn1c(Cc2ccccc2)nc2ccccc21 | 15.7 |
| Cc1ccc(S(=O)(=O)N2CCOCC2)cc1NC(=O)COc1ccc2c(C)cc(=O)oc2c1 | 9.08 |
| CCC1=C(OC(=O)N(CC)CC)N2C(=O)OC(=NCCOC)[C@]2(Cc2ccccc2)[C@H]2C1=CC[C@H]1C(=O)N(CC(=O)OC)C(=O)[C@H]12 | -10.3 |
| CNS(=O)(=O)c1cccc(C(=O)OCc2csc(-c3ccccc3)n2)c1 | -6 |
| COc1ccc(/C(O)=C2\C(=O)C(=O)N(Cc3ccco3)C2c2cc(OC)ccc2OC)cc1 (centres unmarked) | 12.3 |
| NC(=O)CSc1nnc(-c2ccccc2Br)n1-c1cccc(C(F)(F)F)c1 | -11.9 |
| CSCCC(NC(=O)c1ccc(Cl)cc1)C(=O)OCC(=O)N1CCCC1=O (centres unmarked) | -2.69 |
| O=[N+]([O-])c1ccccc1NC(=S)N/N=C/c1ccc(O)c(O)c1 | 10 |
| CN1CCCC(OC(=O)c2cc(Cl)cc(Cl)c2)C1.Cl (centres unmarked) | -43.4 |
| CCOC(=O)c1snc(C(=O)NC2CCCCC2)c1N | -6.13 |
| c1ccc(Cc2noc(CN3CCN(C4CCc5ccccc5C4)CC3)n2)cc1 (centres unmarked) | -81.2 |
| O=C(c1ccccc1)N1CCN(C(=O)c2cc3ccccc3o2)CC1 | -23.8 |
| CCOc1ccc(CCNC(=O)COC(=O)c2cc([N+](=O)[O-])ccc2N2CCOCC2)cc1OCC | -24.7 |
| c1coc(-c2nnc3sc(C4CCCCC4)nn23)c1 | -46.9 |
| N=c1oc2ccccc2cc1C(=O)Nc1cccc(F)c1 | 20 |
| Cc1cc(NS(=O)(=O)c2ccc(NC(=O)/C=C/c3c(F)cccc3Cl)cc2)nc(C)n1 | 19.7 |
| Cc1cccc(/C=C/c2onc(C)c2[N+](=O)[O-])n1 | 6.94 |
| CC(=O)Nc1sc2c(c1C#N)CCCCC2 | 15 |
| Cc1ccccc1NC(=O)Cc1nc(COC(=O)COc2ccccc2C(C)C)cs1 | -17.2 |
| O=C(OCC1CC(c2ccccc2)=NO1)c1ccc(Br)cc1 (centres unmarked) | 17.5 |
